The target in assay [1] is T1, VEGF (UniProt P15692-4 27-191).
T1 sequence (looked up): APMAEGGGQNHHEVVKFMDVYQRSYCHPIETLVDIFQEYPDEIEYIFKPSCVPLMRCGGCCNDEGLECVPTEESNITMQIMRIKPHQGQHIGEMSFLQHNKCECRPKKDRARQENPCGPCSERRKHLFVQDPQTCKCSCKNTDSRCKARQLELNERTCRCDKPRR
The experiment in a line: SPR (Biacore); C-terminal VD.

Assay [2] concerns the target T2, VEGF (UniProt P15692 27-191, limits assumed).
T2 construct: Bought antigen coated on the ELISA plate; also called vascular endothelial growth factor
T2 sequence (looked up): T1 sequence (looked up)
The experiment in a line: direct bind ELISA, antigen on plate; C-terminal VD.

Another assay concerns the target T3, PlGF (UniProt P49763-2 21-149, limits assumed).
T3 construct: Bought antigen coated on the ELISA plate; also called Placental GF; placental growth factor
T3 sequence (looked up): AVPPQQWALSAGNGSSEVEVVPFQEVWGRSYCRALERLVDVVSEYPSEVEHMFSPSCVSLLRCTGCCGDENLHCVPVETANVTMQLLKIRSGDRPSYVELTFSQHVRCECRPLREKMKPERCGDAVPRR
The experiment in a line: direct bind ELISA, antigen on plate; N-terminal VD.

The next assay deals with T4, biotinylated VEGF (UniProt P15692-4 27-191, limits assumed, biotinylated).
T4 sequence (looked up): T1 sequence (looked up)
As to the kind of experiment: capture ELISA, DVD-Ig captured by anti-human Fc, biotinylated VEGF; C-terminal VD.

The target of assay [3] is T5, human DLL4 extracellular domain (human, UniProt Q9NR61 fragment, biotin label in the Notch-1 competition ELISA (sites not given)).
T5 construct: extracellular domain; also called biotin labeled human DLL4 extracellular domain
The experiment in a line: competition ELISA: biotin-labelled human DLL4 ECD pre-mixed with DVD-Ig, then on coated human Notch-1 (competitor Notch-1).

In the next assay the target is T6, DLL4 (human, UniProt Q9NR61 27-685).
T6 construct: whole, on cells; also called human DLL4
As to the kind of experiment: flow cytometry on cells carrying the target, 2 ug/mL; N-terminal VD.

In another assay the target is hIGF1 (human, UniProt P05019 fragment). The experiment in a line: cell-based or functional assay.
The next assay concerns the target IGF2 (UniProt P01344 fragment). The experiment in a line: cell-based or functional assay.

Bounds are passed on as bounds.

The record followed here is patent US20100260668A1 (published 2010).

B1: DVD038 (bispecific antibody, human IgG1, kappa)
heavy: [omitted - about 120 residues]ASTKGPEVQLVESGGGLVQPGGSLRLSCAASGYTFTNYGMNWVRQAPGKGLEWVGWINTYTGEPTYAADFKRRFTFSLDTSKSTAYLQMNSLRAEDTAVYYCAKYPHYYGSSHWYFDVWGQGTLVTVSS[omitted - human IgG1 constant region]
light: [omitted - about 100 residues]RTVAAPDIQMTQSPSSLSASVGDRVTITCSASQDISNYLNWYQQKPGKAPKVLIYFTSSLHSGVPSRFSGSGSGTDFTLTISSLQPEDFATYYCQQYSTVPWTFGQGTKVEIKRTVAAPSVFIFPPSDEQLKSGTASVVCLLNNFYPREAKVQWKVDNALQSGNSQESVTEQDSKDSTYSLSSTLTLSKADYEKHKVYACEVTHQGLSSPVTKSFNRGEC
notes: N-terminal VD HER-2, C-terminal VD VEGF; also called DVD038H; DVD038L
In the assay with VEGF [1], B1 gave an off-rate (koff) below 1e-06 s⁻¹ and a kon of 36700 M⁻¹ s⁻¹.

B2: DVD595 (bispecific antibody, human IgG1, kappa)
heavy: QVQLQQSGAELVKPGASVKISCKASGYTFTDYYINWVKLAPGQGLEWIGWIYPGSGNTKYNEKFKGKATLTIDTSSSTAYMQLSSLTSEDTAVYFCVRDSPFFDYWGQGTLLTVSSASTKGPEVQLVESGGGLVQPGGSLRLSCAASGYTFTNYGMNWVRQAPGKGLEWVGWINTYTGEPTYAADFKRRFTFSLDTSKSTAYLQMNSLRAEDTAVYYCAKYPHYYGSSHWYFDVWGQGTLVTVSS[omitted - human IgG1 constant region]
light: DIVLTQSPDSLAVSLGERVTMNCKSSQSLLNSGMRKSFLAWYQQKPGQSPKLLIYWASTRESGVPDRFTGSGSGTDFTLTISSVQAEDVAVYYCKQSYHLFTFGSGTKLEIKRTVAAPSVFIFPPDIQMTQSPSSLSASVGDRVTITCSASQDISNYLNWYQQKPGKAPKVLIYFTSSLHSGVPSRFSGSGSGTDFTLTISSLQPEDFATYYCQQYSTVPWTFGQGTKVEIKRTVAAPSVFIFPPSDEQLKSGTASVVCLLNNFYPREAKVQWKVDNALQSGNSQESVTEQDSKDSTYSLSSTLTLSKADYEKHKVYACEVTHQGLSSPVTKSFNRGEC
notes: HC linker short, LC linker long; also called DVD595VH; DVD595VL
As to B2, the figures for the 50% effective concentration (EC50) with VEGF [2] and with PlGF were 4.63 nM and 0.21 nM, respectively.

B3: DVD050 (bispecific antibody, human IgG1, kappa)
heavy: EVQLVESGGGLVQPGGSLRLSCAASGFSFSSEPISWVRQAPGKGLEWVSSITGKNGYTYYADSVKGRFTISADTSKNTAYLQMNSLRAEDTAVYYCARWGKKVYGMDVWGQGTLVTVSSASTKGPEVQLVESGGGLVQPGGSLRLSCAASGYTFTNYGMNWVRQAPGKGLEWVGWINTYTGEPTYAADFKRRFTFSLDTSKSTAYLQMNSLRAEDTAVYYCAKYPHYYGSSHWYFDVWGQGTLVTVSS[omitted - human IgG1 constant region]
light: DIQMTQSPSSLSASVGDRVTITCRASQSISSYLAWYQQKPGKAPKLLIYGASSRASGVPSRFSGSGSGTDFTLTISSLQPEDFATYYCQQYMSVPITFGQGTKVEIKRTVAAPDIQMTQSPSSLSASVGDRVTITCSASQDISNYLNWYQQKPGKAPKVLIYFTSSLHSGVPSRFSGSGSGTDFTLTISSLQPEDFATYYCQQYSTVPWTFGQGTKVEIKRTVAAPSVFIFPPSDEQLKSGTASVVCLLNNFYPREAKVQWKVDNALQSGNSQESVTEQDSKDSTYSLSSTLTLSKADYEKHKVYACEVTHQGLSSPVTKSFNRGEC
notes: DVD-Ig; also called NRP1 / VEGF DVD-Ig; DVD050H
Turning to B3, the EC50 with biotinylated VEGF turned out to be 2.3 nM.

B4: DVD257 (DLL-4 (seq. 1) N-terminal / PLGF (seq. 1) C-terminal DVD-Ig) (bispecific antibody, human IgG1, kappa)
heavy: EVQLVESGGGLVQPGGSLRLSCAASGFTFTDNWISWVRQAPGKGLEWVGYISPNSGFTYYADSVKGRFTISADTSKNTAYLQMNSLRAEDTAVYYCARDNFGGYFDYWGQGTLVTVSSASTKGPQVQLQQSGAELVKPGASVKISCKASGYTFTDYYINWVKLAPGQGLEWIGWIYPGSGNTKYNEKFKGKATLTIDTSSSTAYMQLSSLTSEDTAVYFCVRDSPFFDYWGQGTLLTVSS[omitted - human IgG1 constant region]
light: DIQMTQSPSSLSASVGDRVTITCRASQDVSTAVAWYQQKPGKAPKLLIYSASFLYSGVPSRFSGSGSGTDFTLTISSLQPEDFATTYYCQQSYTGTVTFGQGTKVEIKRTVAAPDIVLTQSPDSLAVSLGERVTMNCKSSQSLLNSGMRKSFLAWYQQKPGQSPKLLIYWASTRESGVPDRFTGSGSGTDFTLTISSVQAEDVAVYYCKQSYHLFTFGSGTKLEIKRTVAAPSVFIFPPSDEQLKSGTASVVCLLNNFYPREAKVQWKVDNALQSGNSQESVTEQDSKDSTYSLSSTLTLSKADYEKHKVYACEVTHQGLSSPVTKSFNRGEC
notes: also called 7H; VD257L
In assay [3], B4 came in with an IC50 of 0.38 nM.

B5: DVD257 (bispecific antibody, human IgG1, kappa)
heavy: B4 heavy
light: B4 light
notes: DVD-Ig; outer AB015 (DLL4), inner AB047 (PlGF); also called DLL4 and PlGF DVD-Ig
As for B5, the “FACS Geometric Mean N-terminal” value with DLL4 turned out to be 274.

B6: DVD044 (DLL4 (seq. 1) N-terminal / VEGF (seq. 1) C-terminal DVD-Ig) (bispecific antibody, human IgG1, kappa)
heavy: EVQLVESGGGLVQPGGSLRLSCAASGFTFTDNWISWVRQAPGKGLEWVGYISPNSGFTYYADSVKGRFTISADTSKNTAYLQMNSLRAEDTAVYYCARDNFGGYFDYWGQGTLVTVSSASTKGPEVQLVESGGGLVQPGGSLRLSCAASGYTFTNYGMNWVRQAPGKGLEWVGWINTYTGEPTYAADFKRRFTFSLDTSKSTAYLQMNSLRAEDTAVYYCAKYPHYYGSSHWYFDVWGQGTLVTVSS[omitted - human IgG1 constant region]
light: DIQMTQSPSSLSASVGDRVTITCRASQDVSTAVAWYQQKPGKAPKLLIYSASFLYSGVPSRFSGSGSGTDFTLTISSLQPEDFATTYYCQQSYTGTVTFGQGTKVEIKRTVAAPDIQMTQSPSSLSASVGDRVTITCSASQDISNYLNWYQQKPGKAPKVLIYFTSSLHSGVPSRFSGSGSGTDFTLTISSLQPEDFATYYCQQYSTVPWTFGQGTKVEIKRTVAAPSVFIFPPSDEQLKSGTASVVCLLNNFYPREAKVQWKVDNALQSGNSQESVTEQDSKDSTYSLSSTLTLSKADYEKHKVYACEVTHQGLSSPVTKSFNRGEC
notes: also called DVD044H/DVD044L
Molecule B6 came in with an IC50 in assay [3] of 0.5 nM.

B7: DVD044 (bispecific antibody, human IgG1, kappa)
heavy: B6 heavy
light: B6 light
notes: DVD-Ig; also called DLL4 and VEGF DVD-Ig
With B7, in the assay with DLL4, the “FACS Geometric Mean N-terminal” value amounted to 297.

B8: DVD042 (bispecific antibody, human IgG1, kappa)
heavy: QVQLVQSGAEVKKPGASVKVSCKASGYTFTSYDINWVRQATGQGLEWMGWMNPNSGNTGYAQKFQGRVTMTRNTSISTAYMELSSLRSEDTAVYYCARDPYYYYYGMDVWGQGTTVTVSSASTKGPEVQLVESGGGLVQPGGSLRLSCAASGYTFTNYGMNWVRQAPGKGLEWVGWINTYTGEPTYAADFKRRFTFSLDTSKSTAYLQMNSLRAEDTAVYYCAKYPHYYGSSHWYFDVWGQGTLVTVSS[omitted - human IgG1 constant region]
light: QSVLTQPPSVSAAPGQKVTISCSGSSSNIENNHVSWYQQLPGTAPKLLIYDNNKRPSGIPDRFSGSKSGTSATLGITGLQTGDEADYYCETWDTSLSAGRVFGGGTKLTVLGQPKAAPDIQMTQSPSSLSASVGDRVTITCSASQDISNYLNWYQQKPGKAPKVLIYFTSSLHSGVPSRFSGSGSGTDFTLTISSLQPEDFATYYCQQYSTVPWTFGQGTKVEIKRTVAAPSVFIFPPSDEQLKSGTASVVCLLNNFYPREAKVQWKVDNALQSGNSQESVTEQDSKDSTYSLSSTLTLSKADYEKHKVYACEVTHQGLSSPVTKSFNRGEC
With B8, in the assay with hIGF1, the “N-terminal VD pIGF1R Cellular Assay (hIGF1 Neutralization IC50 nM)” value stood at 1.8 nM. In addition, the “N-terminal VD pIGFR1 Cellular Assay (IGF2 induced IC50 nM)” value with IGF2 is 0.3 nM.
